# According to PubChem BioAssay AID686979 (National Center for Advancing Translational Sciences (NCATS), 2013):
# In all, about 420,000 compounds went through this assay and about 50,000 (12%) were called active. The shares of active, inactive and inconclusive entries below differ from those in the screen. Calls follow the shape of the dose curve; as a rule, active = well fitted inhibition curve with a large enough effect; inconclusive = small, poorly fitted or top-dose-only effect; inactive = flat fitted curve, though single readings scatter. Potencies of inconclusive entries are left out as doubtful fits.
# Test: qHTS for Inhibitors of human tyrosyl-DNA phosphodiesterase 1 (TDP1): qHTS in cells in presence of CPT; also: nearly all actives have a fitted effect of over 55% in size
# Details: chicken DT40 Tdp1-/-;hTDP1 cells + 20 nM CPT, ATP luminescence, 48 h; activity change, negative = growth inhibition: at 46.2 µM (top of the series) unless noted
# Procedure, shortened: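 Chicken DT40 Tdp1-/- cells stably complemented with human TDP1 were seeded at 400 cells/well in medium containing 20 nM camptothecin, exposed to pin-transferred compounds, and grown at 37 °C for at least 48 hr. Viability was read as ATP luminescence.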
# % is scaled to controls: 0 for no effect and ±100 for the full control effect; potency is read from the fitted curve at half-maximal effect; tags tell the direction and shape of the fitted curve.
Compound,Potency,"activity change, negative = growth inhibition"
Cc1cccc(C(=O)O/N=C2/CC3CCC2(C)C3(C)C)c1 (stereo unspecified),"inconclusive [inhibitor, single point]",
c1ccc(-n2nnnc2-c2cccc3ccccc23)cc1,active: 3.66 µM,
CCOC(=O)Cc1c(-c2cccc(Cl)c2)nc2c3ccccc3ccn12,"inconclusive [inhibitor, single point]",
CN(C)S(=O)(=O)c1ccc(N2CCCC2)c(C(=O)N2CCN(S(=O)(=O)c3ccccc3F)CC2)c1,"inconclusive [inhibitor, single point]",
Cc1oc(-c2ccccc2NC(=O)C2CCC2)nc1CNC(=O)c1cccc(C(F)(F)F)c1,,inactive: 5.87% [at 9.04 µM]
CC1(C)Cc2c(sc(NC(=O)c3ccc(S(=O)(=O)N4CCCCCC4)cc3)c2C(N)=O)C(C)(C)N1,"inconclusive [inhibitor, single point]",
CC(C)(C)c1ccc(-c2n[nH]c(=S)n2CC2CCCO2)cc1 (stereo unspecified),"inconclusive [inhibitor, single point]",
Nc1nc2c(ncn2[C@@H]2O[C@H](CNS(=O)(=O)N3CCc4ccccc4C3)[C@@H](O)[C@H]2O)c(=O)[nH]1,,inactive: 10.7%
CC(C)n1c(=O)n(CC(=O)NCC2CCCO2)c(=O)c2c3c(sc21)COC(C)(C)C3 (stereo unspecified),,inactive: 8.83%
O=C(/C=C/c1ccco1)NCC1COc2ccccc2O1 (stereo unspecified),"inconclusive [inhibitor, single point]",
CCC(=O)c1coc2ccc(O)cc12,"inconclusive [inhibitor, partial curve]",
CCC/C(=N\NC(=O)c1csc(C)c1C)c1cccs1,,inconclusive: -32.5% [inhibitor]
Cc1ccc(Cl)c(OCC(=O)NCC(c2cccs2)N2CCOCC2)c1 (stereo unspecified),active: 25.9 µM,
COc1cc(CNCc2cc(OC)ccc2OC)cc(OC)c1,"inconclusive [inhibitor, single point]",
O=C(Nc1ccc2oc(-c3ccccc3)nc2c1)c1ccc2c(c1)OCCO2,active: 23.1 µM,
CCOc1ccc(CSc2nc(C)cc(COC)c2C#N)cc1OCC,"inconclusive [inhibitor, single point]",
O=C(COc1ccccc1)NCC(c1ccco1)N1CCN(c2ccc(F)cc2)CC1 (stereo unspecified),"inconclusive [inhibitor, single point]",
COc1cc(CN2CCCC(C(=O)c3ccc(C(C)(C)C)cc3)C2)cc(OC)c1O (stereo unspecified),"inconclusive [inhibitor, single point]",
Cc1ccc(Nc2ccc(S(=O)(=O)N3CCOCC3)cc2[N+](=O)[O-])cc1C,"inconclusive [inhibitor, partial curve, poor fit]",
Cc1ccc(OCC(=O)NNC(=O)c2ccco2)c(C)c1,,inactive: -17.7%
Cc1ccnc(NC(=O)c2cc(-c3ccc(Cl)s3)nc3ccccc23)c1,active: 10.3 µM,
O=C(CCn1cncn1)NCC1Cc2cc(-c3ccsc3)cc(Cl)c2O1 (stereo unspecified),,inactive: -13.9%
CCOC(=O)c1cc(-c2ccc(OC)cc2)n(CCC(=O)Nc2cccc(C(C)=O)c2)c1C,active: 16.4 µM,
c1ccc(COc2cccc(-c3cc4nc(NCCc5ccncc5)ccn4n3)c2)cc1,active: 14.6 µM,

Compound,Potency,"activity change, negative = growth inhibition"
CC(=O)c1ccc(OCC(=O)c2cc(C)n(-c3ccc4c(c3)OCO4)c2C)cc1,active: 23.1 µM,
NC(=O)COC(=O)c1ccccc1OCC(=O)Nc1ccc(Br)cc1,"inconclusive [inhibitor, single point]",
Cc1cc(C)n(CC(O)COc2ccc(Cl)cc2Cl)n1 (stereo unspecified),"inconclusive [inhibitor, single point]",
O=C(CNC(=O)c1cccs1)N/N=C/c1cccc(Br)c1,,inactive: -7.89%
COCCCNC(=O)c1sc2nc(C)c(C(=O)Nc3ccc(C)cc3C)c(-c3ccc(Br)cc3)c2c1N,"inconclusive [inhibitor, single point]",
CCC(C)NC(=O)CSc1nnc(-c2ccc(C)cc2)c(-c2ccc(C)cc2)n1 (stereo unspecified),"inconclusive [inhibitor, single point]",
Cn1c(/C(C#N)=C/c2ccncc2)nc2ccccc21,"inconclusive [inhibitor, partial curve, poor fit]",
COc1cccc(OC)c1C(=O)Nc1cccc(NC(=O)c2cccs2)c1,,inactive: -3.72%
Cc1ccc(S(=O)(=O)CCC(=O)NCc2ccccc2Cl)cc1,,inactive: -12.6%
COc1ccc(-c2noc(CN(C(=O)Cc3ccc(C)cc3)C(C)C)n2)cc1,"inconclusive [inhibitor, single point]",
O=C(Nc1ccccc1Cl)c1cc[n+](Cc2ccc([N+](=O)[O-])cc2)cc1,,inactive: -13.3%
CCC(=O)N1CCN=C1SCc1cccc(C(F)(F)F)c1,"inconclusive [inhibitor, single point]",
COc1ccc(CCNC(=O)c2ccc(-c3ccc([N+](=O)[O-])cc3Cl)o2)cc1OC,active: 7.31 µM,
CCN(c1ccc(C)c(C)c1)S(=O)(=O)c1ccc2c(c1)CCN2C(=O)CCC(=O)O,"inconclusive [inhibitor, single point]",
Cc1ccc(CSCCC(=O)N2CCN(c3cc(C)ccc3C)CC2)cc1,active: 23.1 µM,
Cc1ccc(NC(=O)COC(=O)c2ccc(Cl)cc2)cc1S(=O)(=O)N(C)C,,inconclusive: -30% [inhibitor]
COc1cc(OC)c2c(c1)O/C(=C\c1ccccc1)C2=O,"inconclusive [inhibitor, single point]",
O=C(CCS(=O)(=O)Cc1ccccc1)NCCc1ccccc1,,inactive: 13.5%
COc1ccccc1N(CC(=O)NC(C)C)S(=O)(=O)c1cccs1,"inconclusive [inhibitor, single point]",
Cc1csc(NC(=O)C2CCN(S(=O)(=O)c3ccccc3F)CC2)n1,"inconclusive [inhibitor, single point]",
COc1cc([C@@H]2c3cc4c(cc3[C@@H](O)[C@H]3COC(=O)[C@H]23)OCO4)cc(OC)c1O[Si](C)(C)C(C)(C)C,active: 13 µM,
COc1ccccc1N1CCN(CC(O)COCCOc2ccc(Br)cc2)CC1 (stereo unspecified),active: 16.4 µM,
CCOc1cc(N2CCOCC2)c(OCC)cc1NC(=O)c1cc(C)nc2ccccc12,"inconclusive [inhibitor, single point]",
COc1ccc(Nc2ncnc3ccccc23)cc1,"inconclusive [inhibitor, single point]",

Compound,Potency,"activity change, negative = growth inhibition"
O=C(c1cnn(-c2ccc(Cl)cc2)c1)c1ccccc1O,,inactive: -19.7%
Cc1cn2c(=O)cc(COC(=O)c3ccccc3F)nc2s1,,inactive: -0.429%
O=C(Cc1ccc(Cl)cc1)NC1CCS(=O)(=O)C1 (stereo unspecified),,inactive: -2.99%
Cc1noc(C)c1COc1ccc(C(=O)Nc2ncccc2O)cc1,"inconclusive [inhibitor, single point]",
COc1cc(-c2nnc(-c3cccs3)o2)cc(OC)c1OC,"inconclusive [inhibitor, single point]",
CC1=CC(C)(C)NC(=S)N1c1ccccc1,active: 20.6 µM,
CC(C)Cn1c(C(C)C)nc([N+](=O)[O-])c1Sc1ccc(Cl)cn1,"inconclusive [inhibitor, single point]",
Cc1cc(C(=O)N2CCN(c3ncccn3)CC2)cs1,,inactive: -5.18%
N#Cc1ccc(C(=O)OCCCc2cc3ccccc3c(=O)o2)cc1,,inactive: -27.4%
CCN1C(=O)[C@@H]2[C@@H](c3ccc(-c4ccccc4)cc3)N3CCCC[C@@]3(C(=O)OC)[C@@H]2C1=O,"inconclusive [inhibitor, single point]",
COc1ccc(C(=O)N(Cc2ccccc2)Cc2ccc(OC)c(COc3ccc(NC(C)=O)cc3)c2)cc1,"inconclusive [inhibitor, single point]",
COc1cc(C)ccc1OCCSc1nc2ccc(NC(=O)c3cccs3)cc2s1,"inconclusive [inhibitor, single point]",
CCCCOC(=O)C1[C@H]2C(=O)N(c3ccccc3CC)C[C@]23C=C[C@H]1O3 (stereo partly specified),,inactive: 1.44%
O=C(COc1ccccc1F)Nc1c2c(nn1-c1ccccc1)CS(=O)(=O)C2,,inactive: 3.2%
COc1ccc(CN(C(=O)c2ccco2)c2ccc(C)c(C)c2)cc1,"inconclusive [inhibitor, single point]",
CN(C)c1ccc(-c2ccnc3c2CC(C)(C(=O)Nc2cccc(N(C)C)c2)O3)cc1 (stereo unspecified),"inconclusive [inhibitor, single point]",
Cc1cc(C)cc(NC(=O)CCCc2nnc3n(CC(C)C)c(=O)c4sccc4n23)c1,"inconclusive [inhibitor, partial curve]",
Cc1ccc(NC(=O)c2ccc3c(c2)NC(=O)c2ccccc2S3)cc1,active: 3.66 µM,
N#CC1=C(N)C(C#N)(C#N)C(c2ccncc2)C2CN(C(=O)OCc3ccccc3)CC=C12 (stereo unspecified),active: 20.6 µM,
CCC1S/C(=C(\C#N)C(=O)NCc2ccco2)N(c2ccc(Br)cc2)C1=O (stereo unspecified),"inconclusive [inhibitor, single point]",
Cc1cccc(Nc2nc(N)nc(CCl)n2)c1C,active: 10.3 µM,
O=C(Nc1ccon1)c1ccc(N2CCCCC2)c([N+](=O)[O-])c1,"inconclusive [inhibitor, single point]",
COc1ccc(CC(=O)N2CCC(Nc3nc4ccccc4n3Cc3ccc(F)cc3)CC2)cc1,"inconclusive [inhibitor, single point]",
